Experimental data reported in paper PMC11685948.
Results are given in words; binding and its absence hold for the method and conditions named. In cells and extracts the contact can be indirect. Some binding calls cover weakened binding; strength is not graded here.

Sequences of proteins named here, by UniProt entry; tags and fusion partners are left off. A change or cut given only in a name is not applied to a line headed by its entry. A line that says so, or that is headed by a name, gives the form on record, which may keep a tag or linker. Residues count along the entry.
UniProt Q7Z2W4: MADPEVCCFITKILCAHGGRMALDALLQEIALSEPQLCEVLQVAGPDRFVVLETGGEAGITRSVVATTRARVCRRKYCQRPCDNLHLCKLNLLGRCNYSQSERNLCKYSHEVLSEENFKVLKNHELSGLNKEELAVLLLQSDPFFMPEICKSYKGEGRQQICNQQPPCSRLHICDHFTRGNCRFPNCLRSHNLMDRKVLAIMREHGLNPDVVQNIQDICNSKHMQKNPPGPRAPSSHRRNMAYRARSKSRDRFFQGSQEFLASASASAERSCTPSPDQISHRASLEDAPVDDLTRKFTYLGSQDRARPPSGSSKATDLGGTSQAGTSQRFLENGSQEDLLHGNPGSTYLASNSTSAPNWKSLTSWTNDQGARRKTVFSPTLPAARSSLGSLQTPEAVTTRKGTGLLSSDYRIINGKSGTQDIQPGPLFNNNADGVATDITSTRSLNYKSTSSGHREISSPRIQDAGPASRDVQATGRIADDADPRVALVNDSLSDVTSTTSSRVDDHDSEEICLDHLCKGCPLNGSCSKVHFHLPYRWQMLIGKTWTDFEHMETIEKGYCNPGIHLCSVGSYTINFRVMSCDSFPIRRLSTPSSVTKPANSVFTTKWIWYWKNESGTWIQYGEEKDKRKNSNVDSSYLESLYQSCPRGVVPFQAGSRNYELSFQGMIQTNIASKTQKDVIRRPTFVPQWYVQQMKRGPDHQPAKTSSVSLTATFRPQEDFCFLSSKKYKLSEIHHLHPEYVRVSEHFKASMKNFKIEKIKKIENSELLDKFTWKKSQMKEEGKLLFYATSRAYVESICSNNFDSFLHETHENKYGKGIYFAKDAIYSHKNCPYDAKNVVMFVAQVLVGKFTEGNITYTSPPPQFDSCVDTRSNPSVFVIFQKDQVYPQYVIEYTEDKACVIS
ZAP-L ΔRBD (HA-tagged): residues 255-902 of Q7Z2W4
ZAP-S-3xHA (Q7Z2W4-2, form named): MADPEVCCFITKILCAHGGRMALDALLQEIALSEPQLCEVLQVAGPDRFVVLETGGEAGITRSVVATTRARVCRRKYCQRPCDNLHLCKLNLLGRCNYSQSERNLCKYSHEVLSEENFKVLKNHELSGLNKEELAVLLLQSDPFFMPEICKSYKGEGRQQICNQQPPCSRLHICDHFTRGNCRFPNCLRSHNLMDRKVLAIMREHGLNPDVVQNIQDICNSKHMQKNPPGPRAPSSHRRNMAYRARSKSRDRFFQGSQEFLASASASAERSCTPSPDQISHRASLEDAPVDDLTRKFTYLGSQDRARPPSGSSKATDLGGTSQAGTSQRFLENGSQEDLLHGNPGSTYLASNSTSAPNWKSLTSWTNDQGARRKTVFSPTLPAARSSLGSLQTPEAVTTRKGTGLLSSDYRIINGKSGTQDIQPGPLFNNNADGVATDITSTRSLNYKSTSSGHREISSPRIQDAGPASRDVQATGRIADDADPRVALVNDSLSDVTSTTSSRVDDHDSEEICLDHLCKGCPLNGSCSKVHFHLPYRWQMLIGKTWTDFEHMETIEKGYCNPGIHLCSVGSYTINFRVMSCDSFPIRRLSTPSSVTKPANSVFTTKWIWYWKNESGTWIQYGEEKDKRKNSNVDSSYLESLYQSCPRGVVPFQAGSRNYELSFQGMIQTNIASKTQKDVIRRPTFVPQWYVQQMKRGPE
ZAP-X RNA_(null) (R74A, R75A, K76A) (Q7Z2W4, form named): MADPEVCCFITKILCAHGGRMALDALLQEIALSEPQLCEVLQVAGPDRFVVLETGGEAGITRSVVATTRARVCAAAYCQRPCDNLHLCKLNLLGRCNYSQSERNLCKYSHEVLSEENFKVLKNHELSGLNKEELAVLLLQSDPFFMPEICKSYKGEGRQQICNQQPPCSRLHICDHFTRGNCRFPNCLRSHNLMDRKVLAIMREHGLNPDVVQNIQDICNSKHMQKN
UniProt Q14258: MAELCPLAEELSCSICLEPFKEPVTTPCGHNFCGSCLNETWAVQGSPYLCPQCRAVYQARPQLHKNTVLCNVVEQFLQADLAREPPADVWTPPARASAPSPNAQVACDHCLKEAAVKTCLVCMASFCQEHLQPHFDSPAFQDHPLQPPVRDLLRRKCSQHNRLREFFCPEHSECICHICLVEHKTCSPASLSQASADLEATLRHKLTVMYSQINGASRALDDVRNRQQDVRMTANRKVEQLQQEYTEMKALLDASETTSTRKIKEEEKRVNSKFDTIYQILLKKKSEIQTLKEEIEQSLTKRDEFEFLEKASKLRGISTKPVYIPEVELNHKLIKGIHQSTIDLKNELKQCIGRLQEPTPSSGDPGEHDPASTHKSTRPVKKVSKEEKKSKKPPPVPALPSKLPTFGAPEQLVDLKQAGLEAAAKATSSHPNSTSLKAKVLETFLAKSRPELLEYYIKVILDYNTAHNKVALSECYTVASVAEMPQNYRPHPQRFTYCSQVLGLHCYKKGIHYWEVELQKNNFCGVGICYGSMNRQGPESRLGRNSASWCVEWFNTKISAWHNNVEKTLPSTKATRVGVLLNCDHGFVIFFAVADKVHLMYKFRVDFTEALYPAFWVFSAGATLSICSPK

Key:
[1] = target: ZAP-L-FLAG (human) (UniProt Q7Z2W4); assay: co-IP; anti-FLAG IP of doxycycline-induced ZAP-L-FLAG or ZAP-N-FLAG from RNase A-treated lysates of 293T ZAP-/- TRIM25-/- KHNYN-/- N4BP1-/- cells transfected with 3xHA-tagged ZAP proteins; washes with 500 mM KCl; western blot (Fig. 2d)
[2] = target: ZAP-N-FLAG (human) (UniProt Q7Z2W4); assay: as above
[3] = target: ZAP-N-3xHA (human) (UniProt Q7Z2W4); assay: co-IP; anti-HA IP of transfected 3xHA-tagged ZAP proteins, blot for TRIM25; text: endogenous TRIM25 of 293T cells; RNase A-treated lysates (Fig. 2f)
[4] = target: ZAP-D-3xHA (human) (UniProt Q7Z2W4); assay: as above
[5] = target: ZAP-L ΔRBD (HA-tagged) (human) (UniProt Q7Z2W4); assay: as above
[6] = target: ZAP-X RNA_(null) (R74A, R75A, K76A) (human) (UniProt Q7Z2W4); assay: as above
[7] = target: ZAP-X-3xHA (human) (UniProt Q7Z2W4); assay: as above
[8] = target: ZAP-L-3xHA (human) (UniProt Q7Z2W4); assay: as above

Substance: ZAP-D-3xHA (from UniProt Q7Z2W4 1-511) (domain or fragment)
- binding [1]: binds
- binding [2]: binds weakly

Substance: ZAP-L ΔRBD (HA-tagged) (from UniProt Q7Z2W4-1 255-902) (domain or fragment)
- binding [1]: binds
- binding [2]: binds weakly

Substance: ZAP-L-3xHA (from UniProt Q7Z2W4-1 1-902)
- binding [2]: binds weakly

Substance: ZAP-N-3xHA (from UniProt Q7Z2W4 1-254) (domain or fragment)
- binding [1]: binds
- binding [2]: binds weakly

Substance: ZAP-S-3xHA (from UniProt Q7Z2W4-2 1-699)
- binding [1]: binds
- binding [2]: binds weakly

Substance: ZAP-X-3xHA (from UniProt Q7Z2W4 1-227) (domain or fragment)
- binding [1]: binds
- binding [2]: binds weakly

Substance: endogenous TRIM25 (from UniProt Q14258 1-630)
- binding [3]: binds weakly
- binding [4]: binds
- binding [5]: no binding
- binding [6]: binds
- binding [7]: binds weakly
- binding [8]: binds
